# Data as given in PubChem BioAssay (NCATS).
# Values joined by “and” are separate entries in the source; they are usually repeats but may differ in a detail not shown here. Identical values can stand only once. Inconclusive results, whose numbers are uncertain, are shown with a selection of clear calls. Potencies of inconclusive entries are doubtful fits and often do not repeat. Active and inactive are the calls of the source. Unless noted, the call rests on the fitted dose curve; in most records, active means well fitted curve in the direction sought with a large enough effect; inconclusive means small, poorly fitted or top-dose-only effect, or another doubt; inactive means no such curve, though single readings can be large; an effect the other way counts as inactive or inconclusive.
# Tests used:
# [1] = target: Aldehyde dehydrogenase, mitochondrial (Homo sapiens) (UniProt P05091); experiment: qHTS for Inhibitors of the Aldehyde Dehydrogenase Family (ALDH2) Confirmatory screens (AID 2061303; active means well fitted inhibition curve with a large enough effect; inconclusive means small, poorly fitted or top-dose-only effect; inactive means no such curve, though single readings can be large or run the other way; title and protocol of this record describe different tests; further: nearly all actives have a fitted effect of over 45% in size); settings: ALDH inhibition qHTS; activity change, negative = inhibition: at 45.4 µM (top of the series)
# [2] = qHTS for Inhibitors of the Aldehyde Dehydrogenase Family (ALDH1A2, ALDH1A3, ALDH2, ALDH3A1) (AID 2061307); settings: ALDH inhibition qHTS; activity change, negative = inhibition: at 50.3 µM (top of the series) unless noted; further: nearly all actives have a fitted effect of over 50% in size; on Potency: test system not described further here
# [3] = target: Retinaldehyde dehydrogenase 3 (Homo sapiens) (UniProt P47895); experiment: qHTS for Inhibitors of the Aldehyde Dehydrogenase Family (ALDH1A3) Confirmatory screens (AID 2061311); settings: activity change, negative = inhibition: at 46 µM (top of the series); further: nearly all actives have a fitted effect of over 60% in size
# [4] = target: Retinaldehyde dehydrogenase 3 (Homo sapiens) (UniProt P47895); experiment: qHTS for Inhibitors of the Aldehyde Dehydrogenase Family (ALDH1A3) Validation screen (AID 2061312); settings: ALDH1A3 enzyme inhibition qHTS validation, fluorescence; activity change, negative = inhibition: at 84.7 µM (top of the series); further: nearly all actives have a fitted effect of over 45% in size
# [5] = target: Retinal dehydrogenase 2 (Homo sapiens) (UniProt O94788); experiment: qHTS for Inhibitors of the Aldehyde Dehydrogenase Family (ALDH1A2) Confirmation screens (AID 2061314); settings: activity, negative = inhibition: at 45.9 µM (top of the series) unless noted; further: nearly all actives have a fitted effect of over 65% in size
# [6] = target: Aldehyde dehydrogenase, mitochondrial (Homo sapiens) (UniProt P05091); experiment: qHTS for Inhibitors of the Aldehyde Dehydrogenase Family (ALDH2) Primary screen (AID 2061308); further: nearly all actives have a fitted effect of over 55% in size
# [7] = target: Aldehyde dehydrogenase 1A1 (Homo sapiens) (UniProt P00352); experiment: qHTS for Inhibitors of the Aldehyde Dehydrogenase Family (ALDH1A1) Confirmatory screens (AID 2061316); settings: activity change, negative = inhibition: at 47.3 µM (top of the series); further: nearly all actives have a fitted effect of over 65% in size
# [8] = target: Retinaldehyde dehydrogenase 3 (Homo sapiens) (UniProt P47895); experiment: qHTS for Inhibitors of the Aldehyde Dehydrogenase Family (ALDH1A3) Primary screen (AID 2061315); settings: ALDH inhibition qHTS; activity change, negative = inhibition: at 56 µM (top of the series) unless noted
# [9] = BET inhibitor-based combinations targeting novel dependencies in MECOM-rearranged (r) AML: OCI-AML3 cell line (AID 2202232); settings: CellTiter-Glo luminescence, 48 h; Potency: OCI-AML3 viability; viability (% of control): at 46 µM (top of the series); further: nearly all actives have a fitted effect of over 35% in size
# In short: (§1)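 Viability of cells (500 per well) is scored by luminescent CellTiter-Glo at 48 hr post-dosing. Eleven-point titrations are normalized to DMSO and empty controls and reduced to AUC values.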
# [10] = BET inhibitor-based combinations targeting novel dependencies in MECOM-rearranged (r) AML: MV-4-11 cell line (AID 2202233); settings: MV-4-11 AML viability, CellTiter-Glo luminescence, 48 h; series mostly up to 46 µM; further: nearly all actives have a fitted effect of over 45% in size
# In short: (§2)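 Using pin-tool transfer, drugs were added in 11 doses to cells (500/well), incubated 48 hr, and assessed with CellTiter-Glo. Z-AUC is a mean-centring transformation applied separately to each screened line.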
# [11] = BET inhibitor-based combinations targeting novel dependencies in MECOM-rearranged (r) AML: AML-194 cell line (AID 2202237; further: nearly all actives have a fitted effect of over 40% in size)
# In short: as §1
# [12] = BET inhibitor-based combinations targeting novel dependencies in MECOM-rearranged (r) AML: SET-2 cell line (AID 2202231); settings: SET-2 AML cells viability, CellTiter-Glo luminescence, 48 h; viability: hits give low values, concentration not given here; further: nearly all actives have a fitted effect of over 35% in size
# In short: as §1
# [13] = BET inhibitor-based combinations targeting novel dependencies in MECOM-rearranged (r) AML: UCSD-AML1 cell line (AID 2202235); settings: UCSD-AML1 AML cells viability, CellTiter-Glo, 48 h; viability (% of control): at 46 µM (top of the series); further: nearly all actives have a fitted effect of over 40% in size
# In short: as §2
# [14] = BET inhibitor-based combinations targeting novel dependencies in MECOM-rearranged (r) AML: AML-191 cell line (AID 2202236; further: nearly all actives have a fitted effect of over 35% in size)
# In short: as §1
# Potency means the concentration at half of the fitted maximal effect; tags describe the fitted curve by direction and shape.
compound,measurement,setting,value
COc1cc(/C=C(\C#N)C(=O)Nc2ccc(C(=O)O)cc2)ccc1OC(=O)c1cccc(F)c1,Potency,[1],"inconclusive: 25.1 µM [inhibitor, partial curve, poor fit]"
same,Potency,[2],"inconclusive: 4.47 µM [inhibitor, partial curve, poor fit] and inconclusive: 28.3 µM [inhibitor, single point]"
same,Potency,[3],active: 15.8 µM
Cc1ccnc(CC(=S)N2CCN(c3cccc(C(F)(F)F)c3)CC2)c1,Potency,[1],"inconclusive: 11.2 µM [inhibitor, full curve, poor fit]"
same,Potency,[2],active: 10 µM
same,Potency,[3],"inconclusive: 4.49 µM [inhibitor, partial curve, poor fit]"
O=C(O)/C=C/c1ccc(O)c(O)c1,Potency,[1],inactive
same,Potency,[2],inactive
same,Potency,[3],inactive
same,Potency,[4],"inconclusive: 8.91 µM [inhibitor, partial curve]"
same,Potency,[5],inactive
Cc1c(C(=O)OCC2CCCCO2)[nH]c2c1C(=O)CC(c1ccco1)C2 (centres undefined),Potency,[1],"inconclusive: 10.1 µM [inhibitor, partial curve]"
same,Potency,[2],inactive
same,Potency,[6],inactive
same,Potency,[7],active: 1.42 µM
O=S(=O)(c1ccccc1)N1CCN(c2nc(-c3ccc(Br)cc3)cs2)CC1,Potency,[1],"inconclusive: 14.2 µM [inhibitor, partial curve, poor fit]"
same,Potency,[2],active: 7.98 µM
same,Potency,[3],"inconclusive: 39.8 µM [inhibitor, single point]"
CN(C)c1cccc(-c2cnc(N3CCC(c4ncc[nH]4)CC3)s2)c1,Potency,[1],"inconclusive: 0.449 µM [inhibitor, full curve, poor fit]"
same,Potency,[2],active: 10.1 µM
same,Potency,[6],"inconclusive: 3.55 µM [inhibitor, full curve, poor fit]"
same,Potency,[8],inactive
same,Potency,[7],active: 0.201 µM
O=C(Nc1cncc(Cc2ccccc2)c1)c1ccc(-c2cccc([N+](=O)[O-])c2)o1,Potency,[1],"inconclusive: 12.7 µM [inhibitor, partial curve]"
same,Potency,[2],active: 1.27 µM
same,Potency,[3],"inconclusive: 12.7 µM [inhibitor, partial curve]"
CN(c1ccccc1)c1ccc(CNc2nn3c(=O)c4ccccc4nc3s2)cc1,Potency,[1],active: 11.2 µM
same,Potency,[2],"inconclusive: 22.5 µM [inhibitor, partial curve]"
same,Potency,[6],"inconclusive: 28.2 µM [inhibitor, single point]"
same,Potency,[7],active: 8.96 µM
OC[C@H]1O[C@@H](Oc2ccc(O)c3cccc(O)c23)[C@H](O)[C@@H](O)[C@@H]1O,Potency,[1],"inconclusive: 2.21 µM [inhibitor, partial curve]"
same,Potency,[2],active: 7.83 µM
same,Potency,[6],"inconclusive: 12.6 µM [inhibitor, partial curve]"
same,Potency,[8],active: 1.78 µM
same,Potency,[7],"inconclusive: 6.97 µM [inhibitor, partial curve]"
CNc1cc(NS(=O)(=O)c2ccc(N)cc2)nc(NC)n1,Potency,[1],"inconclusive: 20 µM [inhibitor, partial curve, poor fit]"
same,Potency,[2],"inconclusive: 6.31 µM [inhibitor, partial curve, poor fit]"
same,Potency,[3],"inconclusive: 35.7 µM [inhibitor, partial curve, poor fit]"
same,Potency,[4],"inconclusive: 0.891 µM [inhibitor, full curve]"
same,Potency,[5],"inconclusive: 11.3 µM [inhibitor, full curve]"
same,Potency,[7],"inconclusive: 20.1 µM [inhibitor, partial curve]"
c1nc(NC[C@@H]2CCCO2)c2cc(-c3ccc4c(c3)OCO4)ccc2n1,Potency,[1],"inconclusive: 22.5 µM [inhibitor, partial curve, poor fit]"
same,Potency,[2],"inconclusive: 28.3 µM [inhibitor, single point]"
same,Potency,[3],"inconclusive: 25.2 µM [inhibitor, partial curve]"
same,Potency,[5],"inconclusive: 15.9 µM [inhibitor, partial curve, poor fit]"
CCC(O)C(C)C1CCC(C(C)C(=O)O)O1 (centres undefined),Potency,[1],"inconclusive: 7.98 µM [inhibitor, partial curve, poor fit]"
same,Potency,[2],"inconclusive: 24 µM [inhibitor, partial curve]"
same,Potency,[3],"inconclusive: 22.5 µM [inhibitor, partial curve]"
same,Potency,[5],"inconclusive: 17.9 µM [inhibitor, partial curve]"
Cc1noc(C)c1-c1ccc2ncnc(NCc3ccc(F)cc3)c2c1,Potency,[1],active: 12.6 µM
same,Potency,[2],"inconclusive: 12.7 µM [inhibitor, partial curve]"
same,Potency,[3],active: 12.6 µM
same,Potency,[5],"inconclusive: 28.3 µM [inhibitor, partial curve]"
CNc1sc(-c2cccc3ccccc23)nc1C(=O)OC,Potency,[1],"inconclusive: 22.5 µM [inhibitor, partial curve]"
same,Potency,[2],active: 15.9 µM
same,Potency,[3],"inconclusive: 20.1 µM [inhibitor, partial curve]"
same,Potency,[5],"inconclusive: 12.7 µM [inhibitor, partial curve]"
Cn1nnnc1Sc1ncnc2scc(-c3cccc(Br)c3)c12,Potency,[1],inactive
same,Potency,[2],inactive
same,Potency,[3],"inconclusive: 4 µM [inhibitor, partial curve, poor fit]"
same,Potency,[5],"inconclusive: 10.1 µM [inhibitor, partial curve, poor fit]"
FC(F)Oc1ccc(C2=Nn3c(nnc3-c3ccccc3C(F)(F)F)SC2)cc1OCC1CC1,Potency,[1],"inconclusive: 10 µM [inhibitor, partial curve, poor fit]"
same,Potency,[2],active: 2.83 µM
same,Potency,[3],"inconclusive: 3.98 µM [inhibitor, partial curve, poor fit]"
same,Potency,[5],active: 17.9 µM
Cc1nn(C)c2c1C(c1ccc(C(F)(F)F)cc1)C(C#N)=C(N)O2 (centres undefined),Potency,[1],"inconclusive: 14.2 µM [inhibitor, partial curve, poor fit]"
same,Potency,[2],"inconclusive: 22.5 µM [inhibitor, single point]"
same,Potency,[3],inactive
same,Potency,[4],active: 6.31 µM
same,Potency,[5],"inconclusive: 14.2 µM [inhibitor, partial curve]"
same,Potency,[8],"inconclusive: 22.4 µM [inhibitor, single point] and inconclusive: 8.91 µM [inhibitor, full curve]"
same,Potency,[7],"inconclusive: 35.7 µM [inhibitor, partial curve, poor fit]"
same,Potency,[9],"inconclusive: 26.3 µM [inhibitor, single point]"
same,Potency,[10],"inconclusive: 11.8 µM [inhibitor, partial curve]"
same,Potency,[11],"inconclusive: 23.5 µM [inhibitor, partial curve, poor fit]"
O=S(=O)(c1cccc2c(I)cccc12)N1CCCNCC1,Potency,[1],"inconclusive: 25.2 µM [inhibitor, partial curve]"
same,Potency,[2],inactive
same,Potency,[3],"inconclusive: 14.2 µM [inhibitor, partial curve, poor fit]"
same,Potency,[4],"inconclusive: 0.501 µM [inhibitor, full curve]"
same,Potency,[7],"inconclusive: 25.2 µM [inhibitor, partial curve]"
same,Potency,[12],"inconclusive: 20.9 µM [inhibitor, partial curve, poor fit]"
same,Potency,[11],inactive
COc1cc(OC)c(NC(=O)c2ccc(Cc3cc4c(cc3C)C(C)(C)CCC4(C)C)o2)c(OC)c1,Potency,[1],"inconclusive: 7.12 µM [inhibitor, partial curve]"
same,Potency,[2],"inconclusive: 7.98 µM [inhibitor, partial curve]"
same,Potency,[3],active: 4 µM
same,Potency,[4],"inconclusive: 50.1 µM [inhibitor, partial curve, poor fit]"
same,Potency,[5],active: 5.65 µM
same,Potency,[8],"inconclusive: 14.1 µM [inhibitor, partial curve]"
same,Potency,[7],active: 5.04 µM
Cc1ccc(-c2ncc[nH]2)cc1NC(=O)c1ccc(OCc2ccccn2)cc1,Potency,[1],"inconclusive: 14.1 µM [inhibitor, partial curve]"
same,Potency,[2],"inconclusive: 15.8 µM [inhibitor, partial curve, poor fit]"
same,Potency,[3],"inconclusive: 22.4 µM [inhibitor, full curve]"
same,Potency,[4],"inconclusive: 14.1 µM [inhibitor, partial curve, poor fit]"
same,Potency,[5],"inconclusive: 12.7 µM [inhibitor, partial curve]"
same,Potency,[7],"inconclusive: 20.1 µM [inhibitor, partial curve, poor fit]"
O=C(O)c1cc(=O)c2c(Cl)cc(Cl)cc2[nH]1,Potency,[1],"inconclusive: 20.1 µM [inhibitor, partial curve, poor fit]"
same,Potency,[2],inactive
same,Potency,[3],"inconclusive: 12.7 µM [inhibitor, partial curve, poor fit]"
same,Potency,[4],"inconclusive: 8.91 µM [inhibitor, partial curve]"
same,Potency,[5],"inconclusive: 22.5 µM [inhibitor, partial curve]"
same,Potency,[7],inactive
O=C(Nc1cccc(Br)c1)c1cc(-c2ccc3c(c2)OCCO3)on1,Potency,[1],"inconclusive: 15.8 µM [inhibitor, partial curve, poor fit]"
same,Potency,[2],inactive
same,Potency,[3],"inconclusive: 25.7 µM [inhibitor, single point]"
same,Potency,[5],inactive
COc1cccc2cc(-c3nc(C4CCC(C(=O)O)CC4)n4ncnc(N)c34)[nH]c12 (centres undefined),Potency,[1],inactive
same,Potency,[2],active: 3.57 µM
same,Potency,[3],"inconclusive: 28.3 µM [inhibitor, partial curve]"
same,Potency,[4],"inconclusive: 6.31 µM [inhibitor, full curve, poor fit]"
same,Potency,[5],"inconclusive: 22.5 µM [inhibitor, partial curve]"
same,Potency,[7],"inconclusive: 8.96 µM [inhibitor, partial curve]"
same,Potency,[13],"inconclusive: 0.417 µM [inhibitor, full curve]"
same,Potency,[14],"inconclusive: 0.417 µM [inhibitor, full curve]"
same,Potency,[11],"inconclusive: 0.742 µM [inhibitor, full curve]"
